Experimental data taken from PubChem BioAssay AID488969 (Vanderbilt High Throughput Screening Facility, 2010).
Whole data set: some 110,000 compounds, median “z-score” near -0.1, cut for the highest 2% near 2. Some of the results follow.

biological target: Metabotropic glutamate receptor 8 (Rattus norvegicus) (UniProt P70579); test: rat mGluR8 modulators via GIRK flux, primary screen, cell-based, thallium flux, HTS (AID 488969); conditions: HEK293 rat mGluR8, GIRK (G protein-gated inwardly rectifying potassium channel) thallium flux, FluoZin2; at 10 µM; stronger effect = higher value; submaximal glutamate (EC20) added with thallium
Chain of UniProt P70579 (P70579 whole entry, looked up): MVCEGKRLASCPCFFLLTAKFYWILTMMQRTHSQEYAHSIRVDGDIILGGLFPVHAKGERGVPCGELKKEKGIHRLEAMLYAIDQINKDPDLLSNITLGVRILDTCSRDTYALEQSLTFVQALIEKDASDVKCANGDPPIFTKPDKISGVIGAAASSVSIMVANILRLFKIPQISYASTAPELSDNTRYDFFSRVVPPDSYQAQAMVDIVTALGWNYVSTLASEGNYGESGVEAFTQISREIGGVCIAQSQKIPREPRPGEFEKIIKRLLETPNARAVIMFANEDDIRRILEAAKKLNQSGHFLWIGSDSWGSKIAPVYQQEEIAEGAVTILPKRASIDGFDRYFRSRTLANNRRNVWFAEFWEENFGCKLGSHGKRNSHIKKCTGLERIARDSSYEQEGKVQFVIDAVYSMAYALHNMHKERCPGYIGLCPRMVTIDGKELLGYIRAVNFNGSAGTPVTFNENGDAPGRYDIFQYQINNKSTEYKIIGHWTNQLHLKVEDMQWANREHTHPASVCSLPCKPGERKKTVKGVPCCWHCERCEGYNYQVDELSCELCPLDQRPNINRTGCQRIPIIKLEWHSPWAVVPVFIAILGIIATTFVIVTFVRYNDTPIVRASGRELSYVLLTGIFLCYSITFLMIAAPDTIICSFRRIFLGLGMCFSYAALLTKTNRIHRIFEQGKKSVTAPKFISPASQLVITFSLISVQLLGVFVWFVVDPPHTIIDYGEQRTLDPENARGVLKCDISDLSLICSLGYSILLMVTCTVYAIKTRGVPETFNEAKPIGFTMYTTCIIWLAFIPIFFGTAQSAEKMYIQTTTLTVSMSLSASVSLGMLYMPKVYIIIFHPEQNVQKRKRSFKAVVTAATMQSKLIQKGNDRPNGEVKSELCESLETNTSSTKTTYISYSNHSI

Compound	z-score
O=C(O)CNC(=S)N(Cc1cccs1)C1CCCCC1	-0.0527
Cc1cc(SC(C)C(=O)NCC(=O)Nc2ccc(F)c(F)c2F)nc2ccccc12 (centres undefined)	-0.101
O=C(NCc1ccccc1)C(c1cccs1)N(Cc1cccs1)C(=O)c1cnccn1 (centres undefined)	-0.142
Cc1ccc(Cn2c(SCc3cccnc3)nc3c2c(=O)n(C)c(=O)n3C)cc1	-0.0321
CN(c1ccccc1)S(=O)(=O)c1ccc(NC(=S)NC(=O)C2CC2)cc1	-0.123
O=C(/C=C\c1cn(-c2ccccc2)nc1-c1ccccc1)Nc1nccs1	-0.18
O=C(Nc1ccc2c(c1)ncn2C1CCCCC1)c1ccco1	0.458
COc1cccc(N(C(=O)CS(=O)CC(=O)Nc2ccc(F)cc2)C(C(=O)NC2CCCCC2)c2cccs2)c1 (centres undefined)	-0.0149
c1cnn(-c2nc(N3CCOCC3)nc(N3CCOCC3)n2)c1	0.839
COc1nc(OC)nc(N2CCC(C(=O)NC3CCCCCC3)CC2)n1	0.175
COc1ccc(OC)c(C(=O)CSc2nnc(-c3cccnc3)n2C)c1	-0.347
O=C(CCc1ccc(Oc2cc([N+](=O)[O-])cc([N+](=O)[O-])c2)cc1)Nc1cccc(Cl)c1	0.199
CC1=CC(C)(C)N2C(=O)C3(N=C(N)NC(Nc4ccccc4)=N3)c3cc(C)cc1c32 (centres undefined)	0.64
c1c2c(cc3sc(N4CCCCC4)nc13)OCO2	0.198
C=CCOc1cc(C)nc(-c2ccccc2O)n1	0.321
Cc1nn(C)cc1CNC(=O)Nc1ccc(Cl)cc1	-0.35
CN(C)c1ccc(NC(=O)CSCc2nc3c(nnn3Cc3ccc(F)cc3)c(=O)[nH]2)cc1	-0.232
CSc1nc(N2CCOCC2)c2c(c1C#N)CC(C)(C)OC2	2.16
CC(C)(C)NC(=O)Cn1ccc(=N)c2ccccc21	0.117
CC(Cl)C(=O)c1c(N)n(C)c(=O)n(C)c1=O (centres undefined)	0.258
COc1ccc(NC(=O)COC(=O)CNS(=O)(=O)c2ccc(F)c(F)c2F)cc1OC	-0.157
COCCCNC(=O)COc1ccc(Br)cc1Cl	-0.0923

Compound	z-score
CC1=NC(=O)C(N=Nc2ccccc2C)N1c1ccccc1 (centres undefined)	0.0289
CCOC(=O)C1=C(C)NC(SC)=NC1c1ccc(OC)cc1 (centres undefined)	-0.294
Cc1ccccc1Cn1nc(C)c(NC(=O)C2c3ccccc3Oc3ccccc32)c1C	0.413
COc1cccc(NC(=O)C(OC(=O)/C=C/c2ccc3c(c2)OCO3)c2ccccc2)c1 (centres undefined)	-0.0384
Cc1ccc(OCc2nnc(SCC(=O)Nc3ccc4c(c3)OCO4)n2C)cc1	1.73
CCOC(=O)c1c(CSc2ccc(C)cc2)oc2ccc(O)cc12	0.0857
COc1cc(CC(CC(=O)O)CC(C)OCc2ccccc2)cc(OC)c1 (centres undefined)	-0.0501
O=C(NCc1ccco1)c1cc(S(=O)(=O)N2CCCc3ccccc32)ccc1Cl	-0.182
COCCOC(=O)C1=C(C)NC(=O)NC1C1CC=CCC1 (centres undefined)	0.391
CC(=O)N1CC(=O)N(OCc2ccccc2)C1c1ccc(Cl)cc1Cl (centres undefined)	-0.0814
Cc1cccc(OC(=O)c2cn(C)nc2C(F)(F)F)c1C	-0.192
Cc1nn(C)c(C)c1S(=O)(=O)N(CC(=O)N1CCc2ccccc21)c1ccc(C(C)C)cc1	-0.0519
O=C(CSc1nnc(-c2ccco2)c(-c2ccco2)n1)Nc1ccccc1	-0.968
CC(NC(=O)C1CCC(CNc2c(N3CCOCC3)c(=O)c2=O)CC1)c1ccccc1 (centres undefined)	1.94
COC(=O)c1[nH]c(C)c(/C(O)=C2\C(=O)C(=O)N(CCCN3CCOCC3)C2c2ccccn2)c1C (centres undefined)	0.103
O=C(N[C@@H](Cc1ccccc1)C(=O)NC1CCCCCC1)c1ccco1	-0.252
Cc1ccc(C2(CC(=O)Nc3nccs3)CCOC(C(C)C)C2)cc1 (centres undefined)	-1.54
OCCNCc1cc(Br)ccc1OCc1ccccc1Cl	1.06
COc1ccc(C(=O)/C=C/Nc2ccc(C)cn2)cc1OC	0.468
CN1c2ccccc2C(C)(C)C12CC(c1cccc(S(=O)(=O)N3CCCC3)c1)=NO2 (centres undefined)	0.282
Cc1ccc(-c2noc(CSc3nnc(-c4cccs4)n3C)n2)cc1	-0.132
CCC1(c2ccccc2)NC(=O)N(CC(=O)N2CCN(S(=O)(=O)c3ccccc3)CC2)C1=O (centres undefined)	-0.344

Compound	z-score
CCOC(=O)C(NC(=O)Nc1ncccn1)(Oc1ccccc1)C(F)(F)F (centres undefined)	0.153
Cc1ccc(/C=C2/SC(=S)N(CCC(=O)N3CCN(c4ccccc4)CC3)C2=O)cc1	-0.356
COCCCNC(=O)COc1cc(C)c(Cl)c(C)c1	-1.54
OCc1cn(-c2ccccc2)nc1-c1cccnc1	-0.372
CCS(=O)(=O)N1CCC(C(=O)NCc2ccc(F)cc2)CC1	0.147
CSc1nc(Oc2ccc(C)cc2)cc(C(F)(F)F)n1	-0.0931
Cc1noc(C)c1S(=O)(=O)N1CCN(Cc2ccc3c(c2)OCO3)CC1	0.0601
CC(C)C(C(=O)O)N1C(=O)/C(=C/C=C/c2ccco2)SC1=S (centres undefined)	-0.321
CCOc1ccccc1N(CC(=O)Nc1ccccc1C(=O)O)S(C)(=O)=O	0.403
COc1cccc(/C=N/NC(=O)C(=O)NCc2cccnc2)c1O	-0.13
CC(=O)Nc1ccc(S(=O)(=O)N(C2=NCC(C)S2)c2ccccc2)cc1 (centres undefined)	-1.3
CC(C)(C)NC(=O)C(c1ccccn1)N(C(=O)c1ccc2c(c1)OCCO2)C1CCCC1 (centres undefined)	-0.011
COCCN(C(=O)Cn1nnc2ccccc21)C(C(=O)NC1CCCC1)c1cc(OC)ccc1OC (centres undefined)	-0.0886
Cc1ccc(N2C(=O)c3ccc(C(=O)N4CCN(c5cccc(C)c5C)CC4)cc3C2=O)cc1	-0.161
Cc1ccc2nc(-c3cccnc3)c(NC3CCCC3)n2c1	-0.516
O=C(NCc1ccc(F)cc1)C1CCN(C(=O)NCc2ccccc2)CC1	0.336
COc1ccccc1NC(=S)c1ccccc1	-0.339
COCCn1c(SC)nnc1-c1c[nH]c2ccccc12	0.391
N#Cc1cc(-c2ccccc2)nnc1Sc1ccccc1	-0.352
COc1cc(C(=O)N2CCCc3ccccc32)cc(OC)c1OC	-0.284
CCOc1ccc(N2C(=O)c3cccnc3C2Nc2ccc(F)cc2)cc1 (centres undefined)	-0.265
CCC1=[N+]([O-])C(C)(/C(C)=N\O)N(O)C1(C)C (centres undefined)	-0.0953

Compound	z-score
O=C(Oc1cc(-c2ccccc2)no1)c1ccc(Cl)cc1	0.668
O=C(Nc1ccc2c(c1)OCO2)C1CCCN(S(=O)(=O)c2cccs2)C1 (centres undefined)	-0.132
COc1ccc(CCNc2oc(-c3ccccc3OC)nc2C#N)cc1	-0.451
CCOC(=O)c1cc(C(=O)Nc2cccc(C)c2)nn1C	-0.147
CCn1c(CNC(=O)Cc2ccc(OC)cc2)nnc1SCCOc1ccccc1	-0.339
Cc1ccc(SCC(=O)Nc2ncc(C)s2)cc1	0.127
COc1nc(Oc2ccc(=O)[nH]n2)nc(N2CCOCC2)n1	0.372
CC(=O)NCCOc1cccc2ccccc12	-0.149
Cc1ccc(-n2c(=O)[nH]c3cc(C(=O)NC4CCN(Cc5ccccc5)CC4)ccc3c2=O)cc1	-0.0496
CC(=O)Nc1ccc(S(=O)(=O)c2ccc(N)cc2)cc1N	0.0639
O=C(COc1ccc(C(=O)c2ccccc2)cc1)NCc1ccc(F)cc1	-0.351
Nc1nc(Nc2ccccc2)nc(N2CCOCC2)c1[N+](=O)[O-]	-0.211
COc1ccc2[nH]c(=O)c(CN(C(=O)COc3ccccc3)C(C)C)cc2c1	-0.936
CCN=C(Nc1ccc(Cl)cc1)c1cccnc1	-0.0365
COc1ccc(Cl)cc1NC(=O)CN1C(=O)CCS(=O)(=O)c2ccccc21	-0.285
COc1cc(C2C(C(C)=O)=C(O)C(=O)N2c2ccc(Br)cn2)ccc1O (centres undefined)	0.097
Cc1ccc(C)c2[nH]c(=O)c(C(c3nnnn3Cc3ccccc3)N3CCc4ccccc4C3)cc12 (centres undefined)	-0.148
CC1Cc2ccccc2N1C(=O)CSc1nnc2sc3ccccc3n12 (centres undefined)	-0.547
O=C(CSCc1ccc(F)cc1)Nc1nc2c(s1)CCCC2	0.848
COc1ccccc1-c1cc(C(=O)NC(C)c2ccccc2)no1 (centres undefined)	-0.492
COc1cccc(-c2cc(C(=O)N3CCN(Cc4ccccc4)CC3)no2)c1	0.395
CCCc1nc(SCC(=O)Nc2nc3c(s2)CCCC3)c2ccccc2n1	0.532

Compound	z-score
COc1ccc2[nH]c(C(=O)O)c(CCC(=O)O)c2c1	-0.0774
O=C(NCc1cc(C(F)(F)F)cc(C(F)(F)F)c1)C12CN(Cc3ccccc3)CC1C(c1cccc([N+](=O)[O-])c1)=NO2 (centres undefined)	-0.3
Cc1ccc(Oc2nc3ccccc3n3cccc23)cc1	0.0653
CC(=O)Oc1cccc(N2C(=O)C3CC=CCC3C2=O)c1 (centres undefined)	-0.543
Cc1ccccc1OCC(=O)NN1Cc2ccccc2C1=N	1.18
N#CC(C(=O)C1CCCCC1)c1nc2ccccc2[nH]1 (centres undefined)	0.179
CCc1nnc(NC(=O)C2CCN(c3nccc(C)n3)CC2)s1	0.111
COc1nc(N(C)C)nc(N2CC(=O)N(CCNS(=O)(=O)c3ccc(C)cc3)C2=N)n1	-0.0633
COc1ccc(C(=O)c2nc3c(n2O)CCCC3)cc1OC	0.301
Cc1ccccc1NCC(=O)N/N=C/C(Br)=C/c1ccccc1	-0.294
C#CC[N+]1(CC#Cc2ccc(C#CC[N+]3(CC#C)CCOCC3)cc2)CCOCC1	0.0885
CC1=C(CC/C(C)=N/NC(N)=S)C(C)(C)CCC1	1.85
O=C(Nc1ccc2c(c1)nc1n2CCN(Cc2ccccc2)C1)c1cccs1	-1.44
S=c1[nH]ncn1/N=C/c1ccccc1	-0.079
Cc1c(Cl)c([N+](=O)[O-])nn1CC(=O)NCc1ccco1	-0.136
O=C(NCc1ccccc1)C12CN(Cc3ccccc3)CC1C(c1cccc([N+](=O)[O-])c1)=NO2 (centres undefined)	-0.327
O=C(Cc1ccc(Cl)cc1Cl)OCC(=O)c1ccc[nH]1	0.0807
CCN1CCN(C(=O)c2cn(CCOC)c(=O)c3c2c2ccccc2n3C)CC1	0.277
COc1ccc(C2(CNC(=O)CCC(=O)O)CCCC2)cc1	0.482
Cc1ccnc(NS(=O)(=O)c2ccc(NC(=O)Cc3ccccc3)cc2)n1	-0.209
COc1ccc(-c2nc3nc(C)c(Cc4ccccc4)c(=O)n3[nH]2)cc1	0.0518
